# The other results are listed elsewhere or left out.
# B1: Pbx2 (Cryptococcus neoformans) (protein)
# chain: AVSPLPSSTELVFYSQKRRRRRICSTATGSLSTPDPTRMTSDPYKRVGMRFSSVPRLLITFLSLLLLVSAAPPCVRFADYDSINQMFIDGGPGTKVLLCPNRLYRLSGPIIFTAADQEIATYGYPTGSERAVLRVEGRNTATAIQGDCRRCARVSVKNLVVDGNRKKLGRMRDFQLATGLVVLGGNEGQSIQNSWIKNPRGFTAIHIREGDKLQCSGARVEKNEIGPVGEEYDPEKDGDDPEMSPLGRPLADGVSIACRDSFIRDNTFRDNTDAAIVVYCSPGTLIHANHIFAQSLSAMAGILMVDSTPFNGDYTGTVVRSNIIDAVSRTIRVGIGIGPTVWSDDTETILTGGSVIGNGLKGRYMGYGIAAAGLKQWTIKDNWDEAKHEGRKSARCFDEPVNPDPIGLLYNRPTMEDCTVQSGFADHDFQYLVCIDGLYDKTNPPKHDPAPLAHDPSPTNAQEDNTVQQDGGDSKSKSIEQPREASDIEAEPSVEKMFSTGSEMMDDVLEHSHQRMHEVIDHLSRRIDILGAASAGKGSGDSKISEVLDPAMSSHLEKLQRKIEHLEFSLRSQIETAIQLRSAIQGWDQEMALVTDWEYDILLDVRHKLELSSYPHDQPLDPRLMRGQSYLNNEAVLVDDHSHPSLEGENLRAMSDRARLNANEEA
# Experiments:
# Assay in all cases: glycan array binding signal (z-score within array); higher = stronger binding
# Conditions in all cases: glycan notation: IUPAC condensed, linker removed
# [1] = molecular target: GalNAc(b1-4)GlcNAc(b1-2)Man(a1-3)[GalNAc(b1-4)GlcNAc(b1-2)Man(a1-6)]Man(b1-4)GlcNAc(b1-4)GlcNAc
# Procedure, shortened: (§1)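 Glycan array data were curated from 3228 arrays in the Consortium for Functional Glycomics database and kept only where the protein sequence was available. Glycan names were converted to IUPAC-condensed notation, and columns mapping to the same glycan were averaged. The binding signal is a within-array Z-score, averaged across arrays of the same protein sequence at different concentrations or buffers and across linkers. Negative Z-scores can be read as non-binding.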
# [2] = molecular target: GalNAc(b1-4)GlcNAc(b1-3)GalNAc(b1-4)GlcNAc
# Procedure, shortened: as §1
# GalNAc(b1-4)GlcNAc6S = molecular target: GalNAc(b1-4)GlcNAc6S
# Procedure, shortened: as §1
# GalNAc(b1-6)GalNAc = molecular target: GalNAc(b1-6)GalNAc
# Procedure, shortened: as §1
# GalNAc3S(b1-4)GlcNAc = molecular target: GalNAc3S(b1-4)GlcNAc
# Procedure, shortened: as §1
# GalNAc3S(b1-4)GlcNAc3S = molecular target: GalNAc3S(b1-4)GlcNAc3S
# Procedure, shortened: as §1
# [3] = molecular target: GalNAc3S(b1-4)[Fuc(a1-3)]GlcNAc
# Procedure, shortened: as §1
# GalNAc4S6S(b1-4)GlcNAc = molecular target: GalNAc4S6S(b1-4)GlcNAc
# Procedure, shortened: as §1
# GalNAc6S(b1-4)GlcNAc = molecular target: GalNAc6S(b1-4)GlcNAc
# Procedure, shortened: as §1
# Glc(a1-4)Glc = molecular target: Glc(a1-4)Glc
# Procedure, shortened: as §1
# [4] = molecular target: Glc(a1-4)Glc(a1-4)Glc(a1-4)Glc
# Procedure, shortened: as §1
# Glc(a1-6)Glc(a1-6)Glc = molecular target: Glc(a1-6)Glc(a1-6)Glc
# Procedure, shortened: as §1
# [5] = molecular target: Glc(a1-6)Glc(a1-6)Glc(a1-6)Glc
# Procedure, shortened: as §1
# Glc(b1-4)Glc = molecular target: Glc(b1-4)Glc
# Procedure, shortened: as §1
# Glc(b1-6)Glc = molecular target: Glc(b1-6)Glc
# Procedure, shortened: as §1
# GlcA(b1-3)Gal = molecular target: GlcA(b1-3)Gal
# Procedure, shortened: as §1
# GlcA(b1-3)GlcNAc = molecular target: GlcA(b1-3)GlcNAc
# Procedure, shortened: as §1
# GlcA(b1-6)Gal = molecular target: GlcA(b1-6)Gal
# Procedure, shortened: as §1
# [6] = molecular target: GlcA3S(b1-3)Gal(b1-4)GlcNAc(b1-2)Man
# Procedure, shortened: as §1
# [7] = molecular target: GlcA3S(b1-3)Gal(b1-4)GlcNAc(b1-3)Gal(b1-4)Glc
# Procedure, shortened: as §1
# [8] = molecular target: GlcNAc(a1-3)Gal(b1-4)GlcNAc
# Procedure, shortened: as §1
# [9] = molecular target: GlcNAc(a1-4)Gal(b1-3)GlcNAc
# Procedure, shortened: as §1
# [10] = molecular target: GlcNAc(a1-4)Gal(b1-4)GalNAc
# Procedure, shortened: as §1
# [11] = molecular target: GlcNAc(a1-4)Gal(b1-4)GlcNAc
# Procedure, shortened: as §1
# [12] = molecular target: GlcNAc(a1-4)Gal(b1-4)GlcNAc(b1-3)Gal(b1-4)Glc
# Procedure, shortened: as §1
# [13] = molecular target: GlcNAc(a1-4)Gal(b1-4)GlcNAc(b1-3)Gal(b1-4)GlcNAc
# Procedure, shortened: as §1
# [14] = molecular target: GlcNAc(a1-4)Gal(b1-4)GlcNAc(b1-3)Gal(b1-4)GlcNAc(b1-3)Gal(b1-4)GlcNAc
# Procedure, shortened: as §1
# [15] = molecular target: GlcNAc(a1-4)Gal(b1-4)GlcNAc(b1-3)Gal(b1-4)[Fuc(a1-3)]GlcNAc(b1-3)Gal(b1-4)[Fuc(a1-3)]GlcNAc
# Procedure, shortened: as §1
# [16] = molecular target: GlcNAc(a1-6)Gal(b1-4)GlcNAc
# Procedure, shortened: as §1
# [17] = molecular target: GlcNAc(b1-2)Gal(b1-3)GalNAc
# Procedure, shortened: as §1
binder,measurement,setting,value
B1,glycan array binding signal (z-score),[1],-0.034
same,glycan array binding signal (z-score),[2],-0.336
same,glycan array binding signal (z-score),GalNAc(b1-4)GlcNAc6S,-0.649
same,glycan array binding signal (z-score),GalNAc(b1-6)GalNAc,-0.486
same,glycan array binding signal (z-score),GalNAc3S(b1-4)GlcNAc,-0.522
same,glycan array binding signal (z-score),GalNAc3S(b1-4)GlcNAc3S,0.7
same,glycan array binding signal (z-score),[3],-0.278
same,glycan array binding signal (z-score),GalNAc4S6S(b1-4)GlcNAc,6.54
same,glycan array binding signal (z-score),GalNAc6S(b1-4)GlcNAc,-0.15
same,glycan array binding signal (z-score),Glc(a1-4)Glc,-0.334
same,glycan array binding signal (z-score),[4],-0.694
same,glycan array binding signal (z-score),Glc(a1-6)Glc(a1-6)Glc,-0.298
same,glycan array binding signal (z-score),[5],0.474
same,glycan array binding signal (z-score),Glc(b1-4)Glc,-0.168
same,glycan array binding signal (z-score),Glc(b1-6)Glc,0.061
same,glycan array binding signal (z-score),GlcA(b1-3)Gal,0.144
same,glycan array binding signal (z-score),GlcA(b1-3)GlcNAc,-0.267
same,glycan array binding signal (z-score),GlcA(b1-6)Gal,0.01
same,glycan array binding signal (z-score),[6],0.255
same,glycan array binding signal (z-score),[7],-0.291
same,glycan array binding signal (z-score),[8],-0.122
same,glycan array binding signal (z-score),[9],-0.481
same,glycan array binding signal (z-score),[10],-0.373
same,glycan array binding signal (z-score),[11],-0.276
same,glycan array binding signal (z-score),[12],0.305
same,glycan array binding signal (z-score),[13],0.137
same,glycan array binding signal (z-score),[14],-0.217
same,glycan array binding signal (z-score),[15],0.012
same,glycan array binding signal (z-score),[16],-0.635
same,glycan array binding signal (z-score),[17],-0.076

# Source: the supplement of paper PMC8728848
